# Results from PubChem BioAssay AID504832 (National Center for Advancing Translational Sciences (NCATS), 2011).
# Hit rate of the full screen: of about 310,000 compounds, about 18,000 (5.8%) were called active. Inconclusive means that the source gave no clear call. Such entries were picked first, then a sample of the others. The call rests on the fitted dose curve; in most records, active means well fitted inhibition curve with a large enough effect; inconclusive means small, poorly fitted or top-dose-only effect, or another doubt; inactive means no such curve, though single readings can be large or run the other way. Potencies of inconclusive entries are left out as doubtful fits.
# Experiment: Primary qHTS for delayed death inhibitors of the malarial parasite plastid, 48 hour incubation
# Settings: P. falciparum luciferase growth in erythrocytes; series mostly up to 28.7 µM
# Method in brief: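 Firefly luciferase activity from engineered P. falciparum reports growth; inhibitors lower the luminescent signal. Cultures contained 2% hematocrit erythrocytes at 0.1% final parasitemia.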
# Potency means the concentration at half of the fitted maximal effect; tags describe the fitted curve by direction and shape.
row,SMILES,Potency
1,COc1ccc2oc(C(=O)OC(C)C(=O)N(C)c3ccccc3)c(C)c2c1 (stereo unspecified),"inconclusive [inhibitor, single point]"
2,O=[N+]([O-])c1ccc(N2CCN(Cc3cccc([N+](=O)[O-])c3)CC2)cc1,"inconclusive [inhibitor, partial curve, poor fit]"
3,CC(=O)Nc1ccc(-c2csc(N3CCC(C(N)=O)CC3)n2)cc1,"inconclusive [inhibitor, single point]"
4,O=C(/C=C/Nc1ccc(Oc2ccccc2Cl)cc1)c1ccco1,"inconclusive [inhibitor, single point]"
5,COC(=O)c1ccccc1NC(=O)COC(=O)c1ccc(C)c(NC(=O)c2ccco2)c1,active: 2.33 µM
6,Cc1ccc(NC(=O)c2sc3ncnc(N4CCN(c5ccccn5)CC4)c3c2C)c(C)c1,"inconclusive [inhibitor, partial curve]"
7,N#Cc1c(NC(=O)COC(=O)c2ccc(S(=O)(=O)N3CCCC3)cc2)sc2c1CCCCC2,inactive
8,C(=C\c1ccccc1)/CSc1nnc(-c2ccccc2)n1Cc1ccco1,"inconclusive [inhibitor, single point]"
9,CCCCN(CCCC)C(=O)c1sc2nc(N3CCOCC3)c3c(c2c1N)CCCC3,"inconclusive [inhibitor, partial curve]"
10,Cc1cc(C)cc(NC(=S)NCCN(C2CCCCC2)C2CCCC2)c1,"inconclusive [inhibitor, partial curve]"
11,CC(=O)Nc1ccc(S(=O)(=O)N2CCN=C2SCc2ccc(C)cc2)cc1,inactive
12,NC(=O)NC(=O)COC(=O)CCCSc1nc2ccccc2s1,inactive
13,CCOc1cc(C)c(S(=O)(=O)Nc2ccc3cn[nH]c3c2)cc1C,"inconclusive [inhibitor, single point]"
14,CC1CCC(C(C)C)C(OCC[N+](C)(C)C)C1 (stereo unspecified),active: 3.7 µM
15,COc1cc2c(cc1OC)C(c1cc(OC)c(OC)cc1[N+](=O)[O-])N(C(C)=O)CC2 (stereo unspecified),inactive
16,NC(=O)c1cc(-c2ccccc2)sc1NC(=O)Cc1ccc(S(=O)(=O)N2CCOCC2)s1,"inconclusive [inhibitor, single point]"
17,C=CCOC(=O)C1=C[C@@H](c2ccc(C(F)(F)F)cc2)[C@H](CCCO)[C@@H](OCC)O1,active: 1.17 µM
18,Cc1ccc(N)cc1O,"inconclusive [inhibitor, partial curve, poor fit]"
19,N#Cc1ccc(C(=O)OCC(=O)Nc2cccc(S(=O)(=O)N3CCCCC3)c2)cc1,"inconclusive [inhibitor, single point]"
20,COc1cc(S(=O)(=O)N(C)Cc2ccc3c(c2)OCCO3)ccc1NC(C)=O,inactive
21,COc1ccc(/C=C(/C#N)C(=O)NC2CCCCC2)cc1Br,"inconclusive [inhibitor, single point]"
22,CN(C)S(=O)(=O)n1cc(/C=C(\NC(=O)c2ccccc2)C(=O)NCCCn2ccnc2)c2ccccc21,"inconclusive [inhibitor, partial curve]"
23,O=C(O)CNC(=O)CC1S/C(=N/N=C2/NC(=O)CS2)NC1=O (stereo unspecified),"inconclusive [inhibitor, partial curve, poor fit]"
24,O=[N+]([O-])c1cc(-n2cnnn2)ccc1N1CCC(Cc2ccccc2)CC1,"inconclusive [inhibitor, partial curve, poor fit]"

row,SMILES,Potency
1,COc1ccc(/C=N/NC(=O)c2cccc(NC(=O)c3ccccc3)c2)c(C(=O)O)c1OC,inactive
2,CCc1ccc(OCCCC(=O)Nc2ccc(S(=O)(=O)Nc3cc(C)nc(C)n3)cc2)cc1,inactive
3,COc1ccc(Cl)c(Cn2c(NCc3ccco3)nc3c2c(=O)n(C)c(=O)n3C)c1,"inconclusive [inhibitor, single point]"
4,O=C(C1CC1)N1CCc2cc(Br)cc(S(=O)(=O)NCC3COc4ccccc4O3)c21 (stereo unspecified),"inconclusive [inhibitor, single point]"
5,O=C(COc1ccc(Br)cc1)N1CCc2ccccc21,inactive
6,Cc1cccc(OCCNC(=O)CCNS(=O)(=O)c2ccc3ccccc3c2)c1,"inconclusive [inhibitor, single point]"
7,CCOC(=O)c1sc(NC(=O)c2ccc(S(=O)(=O)N3CCOCC3)cc2)cc1C,"inconclusive [inhibitor, partial curve]"
8,COc1ccccc1CNC(=O)c1csc2c1CCCC2,inactive
9,CCOC(=O)c1cccc(NC(=O)CCCn2c(=O)c3cccn3c3cccnc32)c1,"inconclusive [inhibitor, single point]"
10,C=CCn1c(COc2ccc(F)cc2)nnc1SCC(=O)NC1CCCC1,"inconclusive [inhibitor, single point]"
11,COc1cc(/C=C/C(=O)N2CCN(c3ccccn3)CC2)cc(OC)c1OC,"inconclusive [inhibitor, partial curve, poor fit]"
12,COc1ccc(/C=C/C(=O)c2cccc(-n3cnnn3)c2)cc1O,inactive
13,CCOC(=O)c1cnn(-c2cc(Oc3ccccc3)ncn2)c1N,inactive
14,CCCC(C(=O)NC(C)(C)C)N(Cc1ccc(F)cc1)C(=O)c1snc(C(N)=O)c1N (stereo unspecified),"inconclusive [inhibitor, full curve, poor fit]"
15,COc1ccc(OC)c(C2=NOC(C(=O)NCCN3CCOCC3)C2)c1 (stereo unspecified),inactive
16,O=C(NC1CCS(=O)(=O)C1)c1cccc(Cl)c1 (stereo unspecified),inactive
17,CC(C)CN(C(=O)CSc1nn(-c2ccc(Cl)cc2)c(=S)s1)C1CCS(=O)(=O)C1 (stereo unspecified),active: 8.28 µM
18,Cc1ccc(C(=O)N/C(=C\c2ccccc2)C(=O)NCc2cccnc2)cc1,inactive
19,Cc1cc(OCCOCCNCc2ccccc2)ccc1C(C)C,"inconclusive [inhibitor, single point]"
20,O=S1(=O)N[C@@H](CC2=CCCCC2)C2CCCCC2O1 (stereo partly specified),inactive
21,COc1ccccc1CNC(=O)C1CCCN(S(=O)(=O)c2ccc3c(c2)CC(C)N3C(C)=O)C1 (stereo unspecified),"inconclusive [inhibitor, full curve]"
22,Cc1ccc(O)c(C(=O)c2cc(C#N)c(=O)n(Cc3ccccc3)c2)c1,inactive
23,Cc1cc(C)cc(OCC(=O)OCC(=O)N2CCc3ccccc32)c1,inactive
24,O=C(N/N=C/C(Cl)=C/c1ccccc1)c1cnccn1,"inconclusive [inhibitor, single point]"

row,SMILES,Potency
1,O=C(NCc1ccccc1)c1c(Cl)nc(Cl)c(Cl)c1Cl,inactive
2,CCCN(CCC)CCCNc1ccc2nnc(-c3ccc(F)cc3)n2n1,"inconclusive [inhibitor, single point]"
3,Oc1cc(NCCc2cccnc2)cc2cccnc12,active: 11.7 µM
4,O=C(Cc1n[nH]c(=O)[nH]c1=O)N/N=C/c1c(O)ccc2ccccc12,"inconclusive [inhibitor, single point]"
5,Cc1nc2ccc(S(=O)(=O)NCC(=O)Nc3ccc(F)cc3)cc2s1,inactive
6,Oc1ccccc1/C=N/[n+]1ccccc1,"inconclusive [inhibitor, partial curve, poor fit]"
7,CCCn1nc2cc(C(=O)NCc3ccc(OC(F)(F)F)cc3)ccc2c1OCC,"inconclusive [inhibitor, single point]"
8,COc1ccc2c(CSc3nnc(-c4cccnc4)n3-c3ccccc3F)cc(=O)oc2c1,"inconclusive [inhibitor, partial curve]"
9,Cc1cccc(Nc2ccccc2C(=O)NCc2ccco2)c1C,"inconclusive [inhibitor, partial curve]"
10,O=C(NC(=S)Nc1nc(-c2cccc([N+](=O)[O-])c2)cs1)c1cc(Cl)ccc1Cl,"inconclusive [inhibitor, single point]"
11,Cc1nc(Nc2ccc(Cl)cc2)c2oc3ccccc3c2n1,"inconclusive [inhibitor, single point]"
12,O=C1CC(N2CCC(c3nc4ccccc4[nH]3)CC2)C(=O)N1c1ccccc1F (stereo unspecified),inactive
13,COC(=O)c1cnc(NNS(=O)(=O)c2ccc(Cl)cc2)nc1C(F)(F)F,inactive
14,COc1ccccc1C(=O)NC(=S)/C=C1/N(C)c2ccccc2C1(C)C,"inconclusive [inhibitor, single point]"
15,CC(CC(=O)N(C)CC(=O)Nc1ccc(N2CCOCC2)cc1)c1ccccc1 (stereo unspecified),"inconclusive [inhibitor, single point]"
16,COc1ccc(S(=O)(=O)N2CCN(C(=O)C3COc4ccccc4O3)CC2)cc1 (stereo unspecified),"inconclusive [inhibitor, single point]"
17,O=C(C1CCN(S(=O)(=O)Cc2ccccc2)CC1)N1CCN(c2ncccn2)CC1,inactive
18,CCn1nc(CC(=O)Nc2nnc(CC(=O)N3CCCC3)s2)c2ccccc2c1=O,inactive
19,O=C(CN1C(=O)/C(=C\c2cccc(Br)c2)Oc2ccccc21)NCCCN1CCOCC1,"inconclusive [inhibitor, partial curve, poor fit]"
20,c1ccc(COc2ccc(OCCn3cncn3)cc2)cc1,inactive
21,O=C(NNc1ccccc1)Nc1ccccc1F,inactive
22,COc1ccc(CNC(=O)C/C(C)=N/NC(=O)c2cnccn2)cc1,inactive
23,CNC(=O)C1CCN(S(=O)(=O)c2c(C)noc2/C=C/c2cccc(C)c2)CC1,"inconclusive [inhibitor, partial curve, poor fit]"
